Measurements from the supplement of paper PMC3334620.
Whole data set: some 33,000 sequences, median “E-score (-0.5 to 0.5)” near -0.021, cut for the highest 2% near 0.32. This is one part of the list.

biological target: T1, Zap1 (UniProt P47043); assay: PBM E-score (8-mer binding enrichment) (E-score (-0.5 to 0.5)); higher = stronger / more preferred TF binding; most listed sequences are background and not binding sites; conditions: protein concentration: 200 nM; construct: GST-full length
T1 sequence: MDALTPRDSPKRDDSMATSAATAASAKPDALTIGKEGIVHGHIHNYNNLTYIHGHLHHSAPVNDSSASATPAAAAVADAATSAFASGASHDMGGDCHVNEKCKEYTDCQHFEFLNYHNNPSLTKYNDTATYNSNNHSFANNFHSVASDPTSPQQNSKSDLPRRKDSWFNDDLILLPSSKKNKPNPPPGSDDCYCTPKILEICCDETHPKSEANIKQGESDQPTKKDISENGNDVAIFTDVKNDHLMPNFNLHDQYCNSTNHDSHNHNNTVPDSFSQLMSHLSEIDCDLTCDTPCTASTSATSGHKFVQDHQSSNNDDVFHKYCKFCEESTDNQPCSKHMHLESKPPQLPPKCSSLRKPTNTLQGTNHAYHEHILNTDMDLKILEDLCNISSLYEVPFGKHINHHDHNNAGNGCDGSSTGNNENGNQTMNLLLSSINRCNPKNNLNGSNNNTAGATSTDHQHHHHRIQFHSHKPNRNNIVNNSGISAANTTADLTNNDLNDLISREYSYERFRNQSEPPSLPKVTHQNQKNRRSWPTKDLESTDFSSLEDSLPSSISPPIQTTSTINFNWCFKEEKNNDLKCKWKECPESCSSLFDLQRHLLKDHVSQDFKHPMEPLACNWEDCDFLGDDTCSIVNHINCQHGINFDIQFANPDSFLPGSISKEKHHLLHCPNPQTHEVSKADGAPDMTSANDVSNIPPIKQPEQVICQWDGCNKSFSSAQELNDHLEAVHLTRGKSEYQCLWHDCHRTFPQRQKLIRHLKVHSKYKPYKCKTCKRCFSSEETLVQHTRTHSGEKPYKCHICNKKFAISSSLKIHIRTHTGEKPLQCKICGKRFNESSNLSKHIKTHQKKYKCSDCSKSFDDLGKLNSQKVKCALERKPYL
Procedure, shortened: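 Yeast transcription factors, full-length or as DNA-binding domains, were expressed with a GST tag using PURExpress in vitro transcription/translation. At about 100-200 nM they were applied to universal all-10-mer Agilent arrays, double-stranded by primer extension on fresh or once-stripped slides. Fluorescent anti-GST detected bound protein, and masliner normalised the scans. E-scores for ungapped eight-base words, pooled with reverse complements, came from the Universal PBM Analysis Suite.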

Sequence | PBM E-score
GTCCATAA | 0.15
ATCCGGTC | -0.12
ACTAGGTG | -0.171
GTCCGCTA | 0.127
GAAGTGAA | -0.0795
AGCGCCCA | -0.263
ATTAGGTA | 0.163
GCGCCGCA | -0.0334
GCGCATAA | -0.166
ATCTCCCA | -0.154
ATCTTACC | 0.0755
GCATAGGA | -0.135
GCTAAAAA | 0.00967
AGAATCTG | -0.0278
CACGCATA | -0.125
ACGTCTTA | -0.0606
CAGAGTAC | 0.0483
CGCTGCCG | -0.184
TAACTAAA | 0.256
GACGGGCC | -0.213
CCGCGGCC | 0.305
CAACGCTG | -0.19
TGCCTAAA | -0.0644
AGCGTTTA | -0.229
GCTTGGCC | -0.188

Sequence | PBM E-score
CTAGAATC | -0.137
CATGTCAG | -0.0265
CTTTAAAG | 0.253
CTGTCACC | 0.0565
GATCAAAC | 0.04
AGTGAGCC | -0.122
AGTTGACG | -0.0633
GAAGCCTA | -0.219
TCAGCCCA | -0.0436
CATCACTC | -0.0206
CGTTTCAC | -0.115
ACACGAAC | 0.013
CACTAACA | -0.0811
ATCGTCAT | 0.0769
CCTGCCTC | -0.259
ACGACTGG | -0.276
CCCGTACG | -0.137
CCTTCAAC | -0.012
CGGGGCAA | -0.0604
AATTTCCT | 0.0432
AGACTATA | 0.126
CAGGATCC | 0.0437
CGCTTGCC | -0.163
CACGGACG | -0.0254
TTAGAGAA | -0.0471

Sequence | PBM E-score
AGTAAACC | 0.177
CGACGTCA | -0.221
CAATTAAA | 0.209
GGGAGGAC | -0.139
ACCGAAGT | 0.0625
CGGACACA | 0.0391
CCCTCAGA | -0.0546
ATGCCTCC | -0.203
GAACCCCC | -0.258
AATAGTCC | -0.0873
AAAGCTTA | 0.0835
GAGCATAC | -0.127
ACAACCAA | 0.267
CGAATTCC | -0.0897
AGTCCCAC | -0.0876
ATGCAATA | -0.11
CGAAATAA | 0.121
GCAACAAC | -0.0651
TCACTTCA | -0.189
GGTGTAGA | 0.0373
AGCACCGG | 0.00821
ATCTCCAC | -0.169
AATAAAAT | 0.148
GCCTGGCA | -0.333
GATTCCCA | 0.0164

Sequence | PBM E-score
AAGCGTTC | -0.09
AGCATCCT | -0.27
AGACATCT | -0.00245
ACAAATAT | 0.0845
GGAGCGTA | -0.24
AGACAACA | -0.0972
TCTCTCAA | 0.0545
AAACTAAC | 0.254
AAGACACC | 0.0129
ATTAGTCC | -0.0033
ACTCGTTA | -0.14
ACATATTA | 0.2
CTGGTAAG | 0.055
AAGAGGAA | -0.134
AGGTTTGA | 0.187
GGCGGTAC | 0.183
GATGCGCA | -0.104
ATGTGTGG | -0.174
TCAGCGCA | -0.194
CGCCAGAG | -0.201
CTGCAAAA | 0.0874
AACGCGAT | -0.111
ATTAGAAT | 0.0647
ACGCATTG | -0.234
ATTACAGC | -0.0895

Sequence | PBM E-score
AAAAGATG | -0.0197
CAGAACCA | 0.213
CCGAGATC | -0.072
GATCGTAA | 0.0242
CAAGGTTC | 0.0224
CCCAACTC | 0.0123
AAAACCTT | 0.221
GACAAGAA | 0.103
GACGTCGC | -0.221
CATGGGCC | 0.0373
ATATCGGC | -0.0164
CTATCCTC | -0.137
TACCAGTA | 0.2
GGAAGTAC | -0.00414
GTGCTGAA | -0.117
GTCCCGAC | -0.0287
ACCGACGA | -0.0704
CATTAGGA | 0.0839
GGGTGGAA | -0.0836
GGTCGTAC | 0.0525
TATTAAAA | 0.228
GAAGACTC | -0.244
ACCGCGGT | 0.237
ATATATCC | 0.124
CCCTTCCG | 0.0394

Sequence | PBM E-score
AGGTAGAT | 0.0029
ACTAGAGT | -0.0234
AACAGTAA | 0.0691
AATCTGCG | -0.0617
CCCTTTAC | 0.162
AAAAAGTA | 0.212
ACAGCTCT | -0.299
ACTGTTAA | 0.0957
CTCTAGAG | 0.11
GATGACAC | -0.0243
CAACGATG | -0.154
ACGCCCGC | -0.208
AACTTTCG | 0.0752
AATGGATA | -0.0177
CCCTCTGA | 0.0399
GTCTGTCA | -0.05
AGGAAAAG | 0.113
GTTCAGCA | -0.0152
CATCGTCA | 0.048
GTGGGCCA | 0.0829
ATCGAGGC | -0.221
AAAGGAGT | -0.103
ACCTGGTG | 0.0112
AATCGCGG | -0.0922
GGTCCAAC | 0.0862

Sequence | PBM E-score
GATGTACA | 0.0332
CGTCAGGA | -0.0678
GACTGAAC | -0.199
CACCTGCC | -0.102
AGATGTAT | -0.11
ACAGAATC | -0.112
TATATTAA | 0.257
ACTGCGAC | 0.0296
CTAGGTAA | 0.0356
TAACTCGA | 0.287
CAGTAGCG | -0.113
AACTTGTC | -0.0387
ACCGCTAG | 0.0126
AAACGAGG | 0.112
ACACGTGA | -0.0213
CGAATAAC | 0.211
ACCGAGGT | 0.215
GAGCCAGC | -0.327
GTGTTCAA | -0.00542
CCTCACCG | -0.121
CCCCCGAC | -0.212
AAAGCGGC | -0.0427
CGAAGTTA | 0.0274
CTCTCTTA | -0.193
AGTGCTCA | -0.212

Sequence | PBM E-score
ACTTTAAA | 0.131
AGACGTGG | -0.252
CAAGCTCA | -0.197
AGCGGTGG | -0.0938
CGATTATA | 0.00501
AAGTCCTC | -0.114
AATCCTGT | 0.0442
CTTATGAC | 0.133
GAATTCGA | -0.0698
CGTTATTC | -0.0367
GCTGAGAA | -0.156
AGCATGTA | -0.194
GGTATACC | 0.263
CACCGAGC | -0.0907
CCATGCAC | -0.157
AGTGTTCC | 0.0611
GGGGACCA | -0.159
ACTTTTCC | 0.0611
ATAGAGAG | -0.325
TGTTGCAA | 0.151
TATGAGCA | -0.234
GAGCGGCA | -0.264
CAAGCCCC | -0.085
ATATAAAT | 0.147
CAGTGACA | -0.128

Sequence | PBM E-score
AACCCAAA | 0.35
ACTAGCTG | -0.214
CCCGCGAC | 0.0273
AGTTAGCG | 0.0959
CACTTAGA | 0.0224
CGTTACAA | 0.121
GTAACAGA | 0.251
GGACTCAA | -0.109
ATAACGAG | -0.0457
GGAACGCA | -0.102
TGATTGAA | 0.154
CATGTTTC | 0.193
CTCGTAAA | -0.00604
AGGCCCGA | -0.248
ATTTATCA | 0.0928
ACGAAAGA | -0.0795
ATGACGCG | -0.123
CTCACTTA | -0.119
AACTGTCC | -0.135
